The list shows a part of the results.
T1: UNK ZnF1-3 (human, UniProt Q9C0B0 31-174)
T1 sequence: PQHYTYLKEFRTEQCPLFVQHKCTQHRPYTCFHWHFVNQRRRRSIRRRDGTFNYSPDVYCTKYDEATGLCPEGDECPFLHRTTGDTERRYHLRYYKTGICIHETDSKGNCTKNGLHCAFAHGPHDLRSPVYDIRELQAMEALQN

B1: chr2:42509997:42509998:+_ENSG00000143924_ENST00000318522|hu_mus|hu_hu_hu_mus_True|1_28 (ssRNA)
RNA: GGGAGUUCUACAGUCCGACGAUCUCGCUGAGUCCUCUCCUCAUAAUUAAACAGGACUACCACUGAGGCGAUAAAAUAAACUAUCUCCCCUGUGGGAAGCAGGUAUACAUUAGCUCUACAGUCCUUUCCUCGAUAACCAUAUGCCAACAGAGGAUUGAGCAUCA
B2: chr8:3604753:3604754:+_ENSMUSG00000044433_ENSMUST00000057028|mus_hu|FALSE|FALSE (ssRNA)
RNA: GGGAGUUCUACAGUCCGACGAUCGGGUGGCGUAAGCACCCUGGUCAAGGGUGCCAGCCGCAGCUCCGCUGGCCGCGUGUGUUUCGGGCUGCGGGGUGACUGGCUGGGCCCGGGCCCAGGGCUGCGCCGGGUGGCCGGGACUCGCAACAGAGGAUUGAGCAUCA
B3: chr10:70744696:70744697:+_ENSG00000165732_ENST00000354185|hu_hu|FALSE|FALSE (ssRNA)
RNA: GGGAGUUCUACAGUCCGACGAUCUUAAAUUAGAAAAUAUUUUCUUUGUAGAAAAUAGUAAAAAUUAUAACAUUUACCAAGCUAACCCAACAAGUUCAUUUAAACCAAAAAGUAGCUAAAUACAUUAUACAUUUAUAAAUACAGCAACAGAGGAUUGAGCAUCA
B4: chr5:31261203:31261204:-_ENSMUSG00000045302_ENSMUST00000088063|mus_hu|FALSE|FALSE (ssRNA)
RNA: GGGAGUUCUACAGUCCGACGAUCGAAGCACACAACUUUCUGCAGUGGAUCGGAGCUAAAGUCUGUCUGCACCGCCUGCAAAUUCUCUACCCUGAGUUCUAGCCCCUCGUGCUGGGUUUCCGCUCCACAUUUCUUCUCUGCUGGCAACAGAGGAUUGAGCAUCA
B5: chr2:47387770:47387771:-_ENSG00000143933_ENST00000272298|hu_mus|hu_hu_hu_mus_True|1_38 (ssRNA)
RNA: GGGAGUUCUACAGUCCGACGAUCAAGGUUUAAGGACAAUGACAGUAAGAUAAGGGAAGAAAACAUGGAGGAAUGAAGUCCUAAUUACUAUACAUGCAUAUUUUUUUACAGUAGGGGGGGGGAACCUUUUACAGAUAUUACAAACAACAGAGGAUUGAGCAUCA
B6: chr2:202488911:202488912:-_ENSG00000155755_ENST00000286196|hu_mus|hu_hu_hu_mus_False|98_98 (ssRNA)
RNA: GGGAGUUCUACAGUCCGACGAUCAUUGAAACAUUUUCAUAAUAUUGCAGUAGCAUUUCAGCAUUAUGUAACAAAAGCUCAAUUGUAAAUACAUGUAUCUUAUAAAAAUACACUUAAAAACACGAGUGGGGAGCGCAGGCGCCACAACAGAGGAUUGAGCAUCA

Target: T1, UNK ZnF1-3
Assay: nsRBNS (natural sequence RNA bind-n-seq); RBNS binding buffer (assumed for nsRBNS): 25 mM Tris pH 7.5, 150 mM KCl, 3 mM MgCl2, 0.01% Triton X-100, 500 ug/ml BSA, 20 U/ml SUPERase-In, 4 C; UNK is unkempt and MSI1 is Musashi-1; names of the RNAs are library labels; protein concentration not given here; high values mean tight binding

Binder | binding signal [enrichment R]
B1 | 0.942
B2 | 0.327
B3 | 2.29
B4 | 1.32
B5 | 2.41
B6 | 0.573
